In the supplement of paper PMC10338343:
± gives the standard deviation. Over roughly 3,000 sequences, “pre-steady-state target cleavage rate” has its median near 0.0079; the highest 2% begin near 0.2. Only a part is listed here, and it is no random draw.

System: MILI (PIWIL2) piRISC loaded with piRNA #2 (26 nt)
Experiment: pre-steady-state target cleavage rate (min^-1); MIWI and MILI are mouse PIWI proteins and EfPiwi is from a freshwater sponge; tags in brackets are library labels; higher = faster piRNA-guided slicing of the target
Details: guide: piRNA #2 5'p-UUAGGUAACCCAGUAGAUCCAGAGGA; auxiliary factor: 500 nM mouse GTSF1
Outline: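 Active affinity-purified piRISC (1 nM) loaded with one synthetic guide was mixed with a transcribed, DNA-blocked target RNA library (0.1 nM), with or without 500 nM GTSF1 partner protein, in HEPES–potassium acetate buffer at 33 °C for 0–8 or 0–960 min. Uncleaved targets were sequenced, normalised to depth and to weakly complementary targets, and pooled across three trials, with k3 capped at 0.0001 min^-1. The pre-steady-state cleavage rate was determined with a burst-and-steady-state fit.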

Sequence | pre-steady-state target cleavage rate
CUUAACCUCUGGAUCUACUGGGUUACGUAA | 0.0671 ± 0.018
CUUAACCUCUGGUUCUACUGGGUUACCUAA | 0.141 ± 0.031
CUUAUCCUCAGGAUCUACUGCGUUACCUAA | 0.0104 ± 0.0053
CUUAUCCUCUCGGAUCUACUGGGUUACCUAA | 0.0384 ± 0.011
CUUAAGGAGAGGAUCUACUGGGUUACCCUAA | 0.00484 ± 0.0047
CUUAUCCACUGGAUCUACUGGGAUACCUAA | 0.0244 ± 0.0059
CUUAAGCUCUCGAUCUUCUGGGUUACCUAA | 0.127 ± 0.02
CUUAAGGUCUGGUUCUACUGGGUUACCAAA | 0.0161 ± 0.007
CUUAAGGAGUGGAUCUACUGGGUUAGCCUAA | 0.0282 ± 0.013
CUUAACCUCUGCAUCUUCUGGGUUACCUAA | 0.112 ± 0.023
CUUAACCUCUGGAUCUACUGGGAUUCCUAA | 0.0791 ± 0.036
CUUAAGGACUGGAUCUACUGGGUUAUCUAA | 0.0246 ± 0.015
CUUAAGCUCUGGAUGCUACUGGGUUACCUAA | 0.0393 ± 0.012
CUUAAGCACUGGAUCUACUGGGUUACCUAA | 0.113 ± 0.02
CUUAAGCUCUGGUUCUACUCGGUUACCUAA | 0.00378 ± 0.003
CUUAAGGUCUGGAUCAUCUGGGUUACCUAA | 0.0302 ± 0.012
CUUAACCCUGGAUCUACUGGGUUACCUAA | 0.0911 ± 0.024
CUUAAGGAGAGGAUCUACUGAGUUACCUAA | 0.00486 ± 0.0035
CUUAUCCUCUGGAUCUACUGGGUUACCUA | 0.159 ± 0.032
CUUAAGGACUGGAUCUACUAGGUUACCUAA | 0.025 ± 0.014

Sequence | pre-steady-state target cleavage rate
CUUAUCCUCUCGAUGUACUGGGUUACCUAA | 0.12 ± 0.019
CUUAAGGAGUGGAUCUACUGGGUUACCUCAA | 0.0289 ± 0.0095
CUUAAGGUCUGCAUCUACUGGGUUAGCUAA | 0.0234 ± 0.0095
CUUAACCUCUGGAUCUACUGGGUUACCUAAA | 0.0972 ± 0.022
CUUAAGCUCUCGAUCUACUGGCUUACCUAA | 0.00378 ± 0.0026
CUUAAGGUCUGGAUCAACUGGGUUACGUAA | 0.00629 ± 0.0038
CUUAACCUCUGGAUCUACUGAGUUACCUAA | 0.0491 ± 0.013
CUUAAGGUCUGCAUCUACUGGGUUACCUUA | 0.0365 ± 0.013
CUUAAGCUCUGCAUCUACUGCGUUACCUAA | 0.0146 ± 0.0057
CUUAAGCUCUGGUUCUACUGGCUUACCUAA | 0.00402 ± 0.003
CUUAACCUCUGGAUCAACUGGGAUACCUAA | 0.018 ± 0.008
CUUAACCUCUGGUUCUACUGGGAUACCUAA | 0.0951 ± 0.039
CUUAAGGUCUAGGAUCUACUGGGUUACCUAA | 0.0231 ± 0.0063
CUUAUCCUCUGGAUCUACUGGGUAAGCUAA | 0.126 ± 0.036
CUUAUCCUCUGGAUCUUCUGGGUAACCUAA | 0.0373 ± 0.0099
CUUAAGGUCUGGAUCUACUGGGUUACUUAA | 0.0785 ± 0.018
CUUAAGGAGAGGAUCUACUGGGUUGCCUAA | 0.00497 ± 0.0039
CUUAAGGAGUGGAUCUAGUGGGUUUCCUAA | 0.00754 ± 0.0029
CUUAUCCUCACCAUCUACUGGGUUACCUAA | 0.127 ± 0.051
CUUAAGGAGACGAUCUACAGGGUUACCAAA | 0.00536 ± 0.0036
